# Measurements as given in PubChem BioAssay AID624418 (National Center for Advancing Translational Sciences (NCATS), 2012).
# Out of some 410,000 compounds screened, about 530 (0.13%) were called active. Inconclusive results, whose numbers are uncertain, are shown with a selection of clear calls. Calls come from the whole dose curve; as a rule, active = well fitted inhibition curve with a large enough effect; inconclusive = small, poorly fitted or top-dose-only effect, or another doubt; inactive = no such curve, though single readings can be large or run the other way. Potencies beside an inconclusive call are fits to weak or partial responses and may not hold up.
# Experiment: qHTS of GLP-1 Receptor Inverse Agonists: Cytotox Screen
# Details: HEK293 cAMP-luciferase reporter cells, luminescence, 24 h; activity change, negative = inhibition: at 38.3 µM (top of the series) unless noted
# In short: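 Quantitative HTS format, 1536 wells, 200 cells/uL seeded. Compounds: 23 nL, 24 h, 37 °C. Detection: luciferase reagent, luminescence at 12 min RT; decreased signal taken as cytotoxic.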
# % is set by controls: 0 for no effect and ±100 for the full control effect; potency is the fitted concentration of half-maximal effect.
Compound,"activity change, negative = inhibition",Potency
Nc1nonc1-n1nnc(C(=O)N/N=C/c2c(Cl)cccc2Cl)c1CSC1=NCCS1,inactive: -3.27%,
O=C(NCCCc1nc2ccccc2n1Cc1ccccc1F)c1ccco1,inactive: 2.31%,
Cc1nn(C(C)(C)C)c(OC(=O)c2c(F)cccc2F)c1Sc1ccccc1,,"inconclusive: 11.2 µM [inhibitor, single point]"
Cc1cccn2c(Nc3ccccc3)c(-c3ccccn3)nc12,,"inconclusive: 3.98 µM [inhibitor, full curve]"
COc1ccc(-c2nc(NC3=NCCCCC3)sc2C)cc1,inactive: -5.3%,
CN(c1cccc(NC(=O)c2ccc(Cl)c(S(=O)(=O)Nc3ccccc3)c2)c1)S(C)(=O)=O,,"inconclusive: 8.91 µM [inhibitor, partial curve, poor fit]"
COC(=O)C1=C(C)N(c2ccc(S(N)(=O)=O)cc2)C(=O)C1,inactive: 15.3%,
COc1cc2ncc3c(-c4ccccc4)nn(-c4ccc(C)cc4)c3c2cc1OC,inactive: -9.47%,
O=C(/C=C/c1ccccc1)NCCc1nc2ccccc2[nH]1,,"inconclusive: 0.501 µM [inhibitor, full curve, poor fit]"
CCOC(=O)N1CCC2(CC1)C(C#N)=C(N)Oc1n[nH]c(CSc3ccc(C)cc3)c12,,"inconclusive: 28.2 µM [inhibitor, single point]"
COc1ccc(S(=O)(=O)NCc2ccc(C(=O)N(C)Cc3ccco3)cc2)cc1,,"inconclusive: 31.6 µM [inhibitor, single point]"
CCOc1ccc2ccccc2c1C(=O)N1CCN(c2ccccc2)CC1,,"inconclusive: 2 µM [inhibitor, partial curve, poor fit]"
Cc1ccc(-n2c(-c3ccccc3)c[n+]3c2CCc2ccccc2-3)c(C)c1,,"inconclusive: 28.2 µM [inhibitor, single point]"
CC(C)c1nc(SCC(=O)N2CCCC2)c2ccccc2n1,,"inconclusive: 15.8 µM [inhibitor, single point]"
CN(Cc1ccccc1)C(=O)c1ccc(NC(=O)Cc2cccc(NC(=O)C3CCN(C(=O)C4CC4)CC3)c2)cc1,,"inconclusive: 28.2 µM [inhibitor, single point]"
COC(=O)CSc1nc(N)c2c3c(sc2n1)C(c1ccccc1)SC(c1ccccc1)C3 (configuration not stated),,"inconclusive: 12.6 µM [inhibitor, partial curve, poor fit]"
Cc1cc(C)c2nc(C(F)(F)F)nc(NCCCN3CCOCC3)c2c1,,"inconclusive: 15.8 µM [inhibitor, single point]"
COc1ccc(/C=C/C(=O)c2ccc(O)cc2)cc1CN1CCOCC1,,"inconclusive: 28.2 µM [inhibitor, single point]"
CC(=NNC(=O)c1ccncc1)c1ccc(Cl)c(Cl)c1,,"inconclusive: 28.2 µM [inhibitor, single point]"
CCCCn1c(=O)c(CCC(=O)OCC(=O)NC(=O)NCCOC)nc2ccccc21,inactive: 5.42%,
COc1cc(NC(=O)CC(C)S(=O)(=O)c2cc3c4c(c2)CCN4C(=O)CC3)cc(OC)c1 (configuration not stated),inactive: -1.56%,

Compound,"activity change, negative = inhibition",Potency
N#CC1C=Cc2c(ccc3ccccc23)N1C(=O)c1ccccc1 (configuration not stated),,"inconclusive: 0.794 µM [inhibitor, full curve]"
O=C(NCCc1cccs1)C1CC(c2ccc([N+](=O)[O-])cc2)=NO1 (configuration not stated),inactive: 0.185%,
Cc1ccccc1-n1ncc2c(SCC(=O)NCc3cccs3)ncnc21,,"inconclusive: 10 µM [inhibitor, partial curve, poor fit]"
O=C(CNC(=O)c1nc[nH]c1C(=O)N1CCN(c2ccccc2)CC1)OCc1ccccc1,,"inconclusive: 31.6 µM [inhibitor, single point]"
O=C(Nc1cccnc1)c1ccc(Cl)c([N+](=O)[O-])c1,,"inconclusive: 12.6 µM [inhibitor, single point]"
COc1cc(C(=O)NC2CCN(C)CC2)ccc1Nc1ncc2c(n1)N(Cc1ccccc1)CCC(=O)N2C,,"inconclusive: 3.55 µM [inhibitor, partial curve, poor fit]"
COc1ccc(/C=N/NS(=O)(=O)c2ccccc2)cc1OC(=O)c1ccc(C)cc1,inactive: -3.58%,
O=[N+]([O-])c1ccc(C=Nc2ccc(Cl)cc2Cl)s1,,"inconclusive: 12.6 µM [inhibitor, single point]"
CC(C)(C)NCC(O)(c1ccc(Cl)cc1)c1ccc(Cl)cc1,,"inconclusive: 28.2 µM [inhibitor, single point]"
CCOc1ccc(NC(=O)Cn2c(=O)oc3cc(S(=O)(=O)N4CCC(C)CC4)ccc32)cc1,inactive: -2.56%,
Cc1ccc(NS(=O)(=O)c2ccc(C(=O)NC3CCN(Cc4ccccc4)CC3)cc2)cc1,,"inconclusive: 11.2 µM [inhibitor, single point]"
COc1cc(Cl)c(C)cc1NC(=O)c1cc2c(s1)-c1c(C)cccc1OC2,inactive: 6.7%,
CN(C)CCOC1(Cc2ccc(F)cc2)CCC(C(C)(C)C)CC1 (configuration not stated),,"inconclusive: 31.6 µM [inhibitor, single point]"
CC(CCc1ccc(O)cc1)NCCC(c1ccccc1)c1ccccc1 (configuration not stated),,"inconclusive: 28.2 µM [inhibitor, single point]"
Cc1cc(C)c(S(=O)(=O)Oc2ccccc2[N+](=O)[O-])c(C)c1,,"inconclusive: 0.891 µM [inhibitor, full curve]"
C=CCNC(=S)N/N=C/c1cn(C)c2ccccc12,,"inconclusive: 3.98 µM [inhibitor, full curve, poor fit]"
CC1CC(C)CN(C(=S)Nc2ccc(SC(F)F)cc2)C1 (configuration not stated),,"inconclusive: 22.4 µM [inhibitor, single point]"
CCCN1C(C(=O)c2ccccc2)=C(OC(=O)c2ccc(C)cc2)c2ccccc2S1(=O)=O,inactive: -3.02%,
COc1ccc(C2=Nn3c(nnc3-c3ccc(OC)cc3)SC2)cc1,,"inconclusive: 0.794 µM [inhibitor, full curve, poor fit]"
Cc1ccc(CNCc2cc3c(C(C)(C)C)nn(-c4ccccc4)c3[nH]c2=O)cc1,,"inconclusive: 3.55 µM [inhibitor, partial curve, poor fit]"
Cc1nn(C)cc1/C=C/C(=O)c1ccc(O)cc1,inactive: 4.07%,
